Source: PubChem BioAssay AID1345083 (National Center for Advancing Translational Sciences (NCATS), 2018)
About 6,200 (6.6%) of roughly 94,000 compounds were called active. This list was built around the results that the source calls inconclusive (neither active nor inactive); the mix of calls is not that of the screen. Calls follow the shape of the dose curve; as a rule, active = well fitted inhibition curve with a large enough effect; inconclusive = small, poorly fitted or top-dose-only effect; inactive = flat fitted curve, though single readings scatter. A potency beside an inconclusive call is a rough fit, not a confirmed value.

Assay: Cytotoxic Profiling in HEK 293 Cell Line of Diverse Libraries Using Quantitative High-Throughput Screening; also: nearly all actives have a fitted effect of over 60% in size
Conditions: HEK 293 viability, ATP luminescence (CellTiter-Glo), 48-72 h; activity change, negative = cytotoxicity: at 115 µM (top of the series) unless noted; series mostly up to 115 µM
In short: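 ATP-coupled CellTiter-Glo luminescence served as viability read-out, recorded 10 min after reagent addition at room temperature. HEK 293 cells, 250 cells/well, had been incubated with pintool-transferred compound for 48 or 72 hr at 37 degree Celsius.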
% is scaled to controls: 0 for no effect and ±100 for the full control effect; potency is read from the fitted curve at half-maximal effect; tags tell the direction and shape of the fitted curve.

| SMILES | Potency | activity change, negative = cytotoxicity | outcome |
| --- | --- | --- | --- |
| COc1ccc(-c2onc(C)c2C(=O)NCCc2cccs2)cc1 | active: 35.5 µM | – | – |
| CC(C)c1nc2c(c(-c3ccc(O)cc3)n1)CN(Cc1ccc(C(F)(F)F)cc1)CC2 | active: 39.8 µM | – | – |
| COc1ccccc1-c1cccc(C(=O)N2CCC[C@H]2C(=O)NCCc2ccc(Cl)cc2)c1 | inconclusive: 50.1 µM [inhibitor, partial curve, poor fit] | – | – |
| Cc1nc(-c2cccc(Cl)c2)n(CC(=O)Nc2ccc(C(F)(F)F)cc2)c(=O)c1CCO | active: 31.6 µM | – | – |
| COc1ccc(-c2cc(N3CCN(C(=O)c4ccc(F)cc4F)CC3)n[nH]2)cc1 | inconclusive: 56.2 µM [inhibitor, partial curve, poor fit] | – | – |
| Cc1nn(-c2ccccc2)c2c1C(C)N(C1CN(C(=O)c3cccc(Cl)c3)C1)C2=O (stereo unspecified) | inconclusive: 50.1 µM [inhibitor, partial curve, poor fit] | – | – |
| O=C(C1CCCN1C(=O)c1ccccc1)N1CCC(N2CCOCC2=O)CC1 (stereo unspecified) | – | inactive: -14.5% | – |
| Cc1nn(CCC#N)c(C)c1[C@@H]1C=C[C@@H](NS(=O)(=O)c2ccccc2)C1 | – | inactive: -9.74% [at 172 µM] | – |
| CC(C)n1c(CNC(=O)Cn2nc3c(cc2=O)CCCCC3)nc2ccccc21 | inconclusive: 56.2 µM [inhibitor, partial curve, poor fit] | – | – |
| CN(C)c1ccc(CN2CCn3c(nnc3C3CCNCC3)C2)cc1 | – | – | inactive |
| Cc1onc(-c2ccccc2)c1C(=O)N(C)C1CCCN(C2Cc3ccccc3C2)C1 (stereo unspecified) | inconclusive: 50.1 µM [inhibitor, partial curve, poor fit] | – | – |
| CN(CC(=O)N1CCC(C)(c2noc(C3CC3)n2)CC1)S(=O)(=O)c1cccs1 | inconclusive: 89.1 µM [inhibitor, single point] | – | – |
| COc1cccc(-c2cc(C(=O)NCc3cc(C)on3)c3c(c2)N(C)CCO3)c1OC | inconclusive: 100 µM [inhibitor, partial curve] | – | – |
| Cc1ccc(C(=O)N2CCC(F)(c3nc(-c4ccncc4)no3)CC2)s1 | inconclusive: 50.1 µM [inhibitor, partial curve, poor fit] | – | – |
| Cn1ncc2c(C(=O)C3CCN(Cc4ccccc4)CC3)cc(-c3ccccc3C(F)(F)F)nc21 | active: 20 µM | – | – |
| O=C(Nc1ccccc1)N1CCCC(C(=O)N2CCC(c3nc4ccncc4[nH]3)C2)C1 (stereo unspecified) | – | inactive: -10.3% | – |
| O=C(C1CCCC1)N1CCCC1C(=O)N1CCCC1c1nc2ccncc2[nH]1 (stereo unspecified) | – | inactive: 0.412% | – |
| Cc1noc(C)c1S(=O)(=O)N1[C@@H]2CC[C@H]1CC(NC(=O)c1ccc(F)cc1)C2 (stereo partly specified) | inconclusive: 39.8 µM [inhibitor, partial curve] | – | – |
| CC(C(=O)NCc1ccccc1)N1C(=O)COc2ccc(C(=O)COc3ccc(Cl)cc3)cc21 (stereo unspecified) | active: 89.1 µM | – | – |
| COc1ccc(C(=O)N2CCCC2C(=O)N2CCC(N3CCOCC3=O)CC2)cc1 (stereo unspecified) | – | – | inactive |
| O=C1Nc2ccccc2O[C@H]2C[C@@H]1N(C(=O)NCc1ccccc1)C2 | – | inactive: -7.48% [at 172 µM] | – |
| COc1ccc(CN2CCC3(Cc4ccccc4CNC3=O)C2)cn1 (stereo unspecified) | – | inactive: -21.3% | – |
| CC(=O)N1CCCC(c2[nH]ccc2C(=O)NCc2ccc3c(c2)OCO3)C1 (stereo unspecified) | – | – | inactive |

| SMILES | Potency | activity change, negative = cytotoxicity | outcome |
| --- | --- | --- | --- |
| COc1ccc(OCc2nc(C)c(CCO)c(=O)n2CC(=O)Nc2ccc(Cl)cc2F)cc1 | inconclusive: 79.4 µM [inhibitor, partial curve, poor fit] | – | – |
| Cc1n[nH]c(C)c1C(N)C(=O)N1CCN(c2ccc3nccn3n2)CC1 (stereo unspecified) | – | inactive: -1.06% | – |
| CCCOc1ccc(CN2CCn3nnc(CCC(=O)N4CCCC4)c3C2)cc1 | inconclusive: 44.7 µM [inhibitor, partial curve, poor fit] | – | – |
| CCc1ccc(CN(C)C(C(=O)O)c2c(OC)cccc2OC)nc1 (stereo unspecified) | inconclusive: 89.1 µM [inhibitor, single point] | – | – |
| COc1cc(CNCc2nnn3c2CN(Cc2ccccc2C#N)C(=O)CC3)cc(OC)c1 | inconclusive: 89.1 µM [inhibitor, single point] | – | – |
| COc1ccc(C(=O)Nc2ccc(-c3noc([C@@H]4CCCN4Cc4cnc5ccccc5c4)n3)cn2)cc1 | active: 22.4 µM | – | – |
| O=C([C@H]1CCCN1C(=O)Nc1ccc(Cl)cc1)N1CCC(N2CCOC2=O)CC1 | – | – | inactive |
| COC[C@@H]1CN(C(=O)c2ccsc2)C[C@H]1c1ccccn1 | – | inactive: -1.54% | – |
| O=C(CSc1ccccn1)N1CCn2nc(C(O)c3ccccc3)cc2C1 (stereo unspecified) | – | – | inactive |
| COc1ccccc1Nc1ccnc(N2CCC(C(=O)NCc3cccc(F)c3)CC2)n1 | inconclusive: 22.4 µM [inhibitor, full curve, poor fit] | – | – |
| O=c1cc(CN2CCCC(c3nccn3Cc3ccccc3)C2)[nH]c(=O)[nH]1 (stereo unspecified) | – | inactive: -19.1% | – |
| COc1cccc(C(=O)N2CCC(CCOc3ccc(F)cc3)C2)c1 (stereo unspecified) | inconclusive: 50.1 µM [inhibitor, partial curve, poor fit] | – | – |
| O=C(c1ccccc1F)N1CC(N(Cc2cccnc2)C(=O)Nc2ccccc2)C1 | – | inactive: -23.1% | – |
| CNC(=O)CCn1ncc2cc(OCc3ccccc3-c3ccsc3)ccc21 | active: 89.1 µM | – | – |
| CN(c1ccccc1)c1ccc2nnc(-c3cc(C(=O)Nc4ccccn4)ccn3)n2n1 | active: 56.2 µM | – | – |
| CC(=O)N1CCC2(CC1)CN(C(=O)Cc1ccc(Cl)cc1)CCO2 | – | inactive: 3.04% | – |
| CCN1C(=O)C2CC3(CCN(S(=O)(=O)c4cccc5nsnc45)CC3)CN2C1=O (stereo unspecified) | – | inactive: -5.44% | – |
| Cn1cncc1C(=O)N1CCC2(CC1)CNC(C(=O)O)C2 (stereo unspecified) | – | – | inactive |
| Cc1ccc(CN2C[C@@H](CO)[C@H](NC(=O)c3ccccc3)C2)nc1 | inconclusive: 79.4 µM [inhibitor, partial curve, poor fit] | – | – |
| CC(=O)Nc1ccc(CN2CC(N3CCc4ccccc43)C2)cc1 | – | – | inactive |
| O=C(Nc1ccccc1)c1cc2n(n1)CC(c1ccc(Br)cc1)OC2 (stereo unspecified) | inconclusive: 50.1 µM [inhibitor, partial curve, poor fit] | – | – |
| COC(=O)c1ccc(CN2C(=O)[C@@H]3C[C@@H](O)CN3C3(CN(Cc4ccccc4F)C3)C2=O)cc1 | – | inactive: -0.821% | – |
| CN1C[C@@H](NC(=O)c2ccc(F)cc2)C[C@H]1c1nc(-c2ccccc2)no1 | inconclusive: 126 µM [inhibitor, single point] | – | – |
